Laboratory results: PubChem BioAssay AID1508624 (National Center for Advancing Translational Sciences (NCATS), 2021)
Out of some 48,000 compounds screened, about 120 (0.25%) were called active. Inconclusive results (about 4%) are left out. Calls follow the shape of the dose curve; as a rule, active = well fitted activation curve with a large enough effect; inconclusive = small, poorly fitted or top-dose-only effect, or another doubt; inactive = no such curve, though single readings can be large or run the other way. The list shows a part of the results.

Assay: Primary qHTS for Identification of Small Molecule Activators of Huntingtin-Antisense Promoter Activity; also: nearly all actives have a fitted effect of over 55% in size
Conditions: HEK293 HTT-AS promoter firefly luciferase reporter, 24 h; series mostly up to 57.5 µM; activity change, positive = activation: at the top concentration
How it was run: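 HEK293 cells carrying firefly luciferase reporters were seeded at 2,500 per well in Opti-MEM and cultured for 24 h. They were then treated with compounds at up to 57.5 uM final for 24 h at 37 degrees C before Dual-Glo luminescence readout.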

Activity change, positive = activation, inactive:
Cc1cccc(C)c1OCC(=O)N(Cc1ccco1)Cc1ccco1 -13.4%
C=Cc1ccc(Cn2c(C)c(CNCCc3ccc(OCC)cc3)c(C(=O)O)c2C)cc1 -28.6%
CCn1cc(C(=O)N2CCN(c3cccc(Cl)c3)CC2)c(=O)c2cc(S(=O)(=O)N3CCC(C)CC3)ccc21 -15.8%
Cc1ccc2c(=O)cc(CSc3ncn[nH]3)[nH]c2c1C -2.62%
CCOC(=O)c1c(C)[nH]c(C)c1S(=O)(=O)N1CCC(C(=O)N2CCN(c3ccc(F)cc3)CC2)CC1 -12.9%
Cc1ccc2nc(NC(=O)c3ccc(S(=O)(=O)N4CCC(C)CC4)cc3)sc2c1 -12.5%
Cc1ccccc1CN1C(=O)c2ccccc2Sc2ccc(C(=O)NCCc3ccccc3)cc21 -12.1%
COc1cc(C(=O)NCCc2sc(-c3cccc(F)c3)nc2C)cc(OC)c1OC -18.1%
Cc1nc2cc(-c3cccc(F)c3)nn2c(C)c1CCC(=O)NC(C)c1ccccc1 (stereo not drawn) -65.2%
O=C(Nc1ccccc1Br)c1cc(CN2CCCC2)on1 16.6%
COc1cc2c(cc1NC(=O)c1ccccc1C)n(C)c(=O)n2C 5.91%
CCc1ccc(CNC(=O)c2ccc(-c3nc(CSc4ccc(C)cc4)c(C)o3)cc2)cc1 0%
O=C(CSc1oc(-c2ccc(F)cc2)nc1S(=O)(=O)c1ccccc1)NC1CCCCC1 -6.6%
CCSc1nnc(NC(=O)c2cc(=O)c3cc(C)ccc3o2)s1 5.92% [at 11.5 µM, percent change from vehicle, -100% = no light]
COc1cccc(CNC(=O)CCn2cnc3ccccc3c2=O)c1 -4.68%
O=C(CCN1C(=O)c2ccccc2Sc2ncccc21)Nc1ccc(F)cc1 -15.2%
CC(CCc1ccccc1)NC(=O)Cn1ncc2c3ccccc3n(Cc3ccccc3)c2c1=O (stereo not drawn) -7.97%
CCCCOc1ccccc1C1CC(=O)Nc2cc(C)c(C)cc21 (stereo not drawn) -30.7%
COc1ccc(-c2nnc(SCC(=O)Nc3c(C)cccc3C)nc2-c2ccc(OC)cc2)cc1 -2.23% [at 11.5 µM, percent change from vehicle, -100% = no light]
CC(C)CNc1ncnc2onc(-c3ccc(Cl)cc3)c12 -14.2%
CCOC(=O)c1ccc(NC(=O)c2oc3c(c2C)-c2nn(Cc4ccccc4Cl)cc2CC3)cc1 -21.3%
Cc1cc2oc(C(=O)N(Cc3ccc(N(C)C)cc3)Cc3ccco3)c(C)c2cc1Cl -20.7%
Cc1ccccc1Nc1nc(N)c(C(=O)c2ccccc2Cl)s1 -17.9%
CCCCc1ccc(NC(=O)CSc2nc(=O)[nH]c3c2CCCC3)cc1 -25.2%
CCOc1ccc(S(=O)(=O)N2CCN(Cc3nc4ccc(C)cc4o3)CC2)cc1 -28%
Oc1cc2c(cc1O)C1c3ccc(O)c(O)c3OCC1(O)C2 (stereo not drawn) -5.24%
O=C(CSc1nc2c([nH]c3ccccc32)c(=O)n1-c1ccccc1F)Nc1cccc(C(F)(F)F)c1 -36.8%
CCOc1ccc(NC(=O)c2cnc3sc(N4CCOCC4)nn3c2=O)cc1 -8.94%
COc1cccc(N2CC(NC(=O)COc3ccccc3F)CC2=O)c1 (stereo not drawn) -10.2%
COC(=O)CCN(c1ccccc1)C(CNS(=O)(=O)c1ccccc1)c1ccccc1 (stereo not drawn) -33.6%
CCOc1ccc(CCNC(=O)Cn2c(-c3cccs3)cc3ccccc32)cc1OCC -32.2%
Cc1ccc(C)c(NC(=O)CSc2ccc3nc(-c4ccccc4)cn3n2)c1 8.93%
COc1ccc(Nc2oc(/C=C/c3ccccc3OC)nc2C#N)cc1 17%
O=C(Nc1cccc(C(=O)OCc2cc(=O)n3nc(C4CC4)sc3n2)c1)c1cccc(Cl)c1 11.3%
Cc1ccc(-c2nc(S(=O)(=O)c3ccccc3)c(N3CCN(c4ccccc4)CC3)o2)cc1 -13.9%
Cc1ccc2nc(COc3ccccc3NC(=O)COc3ccc(F)cc3)cc(=O)n2c1 -9.76%
CCc1ccccc1NS(=O)(=O)c1ccc2[nH]cc(C(=O)N(CC(C)C)CC(C)C)c(=O)c2c1 -25.3%
CCc1ccccc1N(CC)C(=O)c1c(C)oc2ncn(C)c(=O)c12 -16.4%
COc1ccc(NC(=O)C2CCN(S(=O)(=O)c3ccc4c(c3)CCCC(=O)N4)CC2)cc1OC -5.99%
O=C(Nc1ccccc1C(=O)OCc1cc(=O)n2c3c(sc2n1)CCCC3)c1ccc(F)cc1 -9.1%
COc1ccc(-c2nc(SCC(=O)Nc3ccc4c(c3)OCCO4)c(-c3ccc(F)cc3)[nH]2)cc1 -19.3%
Cc1cccc(C(C)C)c1NC(=O)Cn1c(=O)oc2cc(S(=O)(=O)N3CCCC3)ccc21 -29.8%
CCc1ccc2nc(N(CCN(CC)CC)C(=O)c3cccs3)sc2c1 7.29%
Oc1ccc(-c2ccc(-c3cc(Nc4cccc(CNC5CC5)c4)n[nH]3)cc2)c(O)c1 -19%
COc1ccc(OC)c(C(=O)CC2(O)C(=O)N(Cc3ccccc3C)c3ccccc32)c1 (stereo not drawn) -30.3%
CCOC(=O)c1cccc(NC(=O)CCS(=O)(=O)c2ccc3c(c2)CC(=O)N3C)c1 1.63%
Cc1ccc(S(=O)(=O)C2(C(=O)Nc3ccc(Cl)c(C(F)(F)F)c3)CC2)cc1 -15.6%
Cc1ccc(/C=C(\C#N)c2nc(-c3ccc(-c4ccccc4)cc3)cs2)cc1 4.61%
COC(=O)c1ccc(Cl)cc1NC(=O)NCCc1c(C)nn(C)c1C -2.38%
Cc1c(C(=O)N2CCOCC2)oc2c1-c1nn(CC(=O)NCc3cccc(F)c3)cc1CC2 -32.7%
CC(C)c1ccc(NC(=O)Cn2c(=O)n(CC3CCC(C(=O)NCCc4ccccc4)CC3)c(=O)c3ccccc32)cc1 (stereo not drawn) -10.3%
Cc1ccc(-n2c(=O)c3cccnc3n2CC(=O)Nc2cc(C)cc(C)c2)cc1 -15.8%
COc1ccccc1CNC(=O)Cn1c(=O)nc(-c2ccccc2F)c2cc(Cl)ccc21 8.23%
COc1ccc(-n2ccnc2SCC(=O)Nc2ccc3c(c2)OCO3)cc1 -14.4%
O=C(NCCCCN1CCOCC1)c1cc2ccccc2o1 1.78%
CC(C)(C)C1CCc2c(sc(NC(=O)Cn3nnc(-c4ccccc4Cl)n3)c2C#N)C1 (stereo not drawn) 0.655%
Cc1cccc(N2CCN(C(=O)CS(=O)(=O)c3cccc4nsnc34)CC2)c1C -7.92%
Cc1ccc(Cl)cc1N1CCN(C(=O)C2CCC(CNS(=O)(=O)c3cccs3)CC2)CC1 (stereo not drawn) -21.4%
Cc1ccc(CNc2ccc(-c3nc(-c4ccncc4)no3)cc2[N+](=O)[O-])cc1 -11.4%
CCC(C(=O)NCc1cc(OC)ccc1OC)n1nc(C)c2sc3ccccc3c2c1=O (stereo not drawn) -17%
COc1cccc(C(=O)N2CCC(C(=O)Nc3cccc(Cl)c3)CC2)c1 -4.29%
Cc1cccc(CNC(=O)c2ccc(N3Cc4ccccc4Oc4ncccc43)s2)c1 -23.7%
CN(C)c1cccc(C(=O)N2CCC(c3c[nH]c4ccccc34)(c3c[nH]c4ccccc34)CC2)c1 -3.34%
COc1cc(C(=O)Nc2ccc(NC(=O)c3ccc(C(C)(C)C)cc3)cc2)cc(OC)c1OC -48.9%
O=C(COCc1cc(-c2cccs2)on1)N1CCN(c2ccccc2)CC1 -1.37%
COc1ccccc1C(=O)Nc1ccc2nc(SCCOc3ccccc3C)sc2c1 -18.3%
CC(C)c1ccc(N2C(=O)CSC23C(=O)N(Cc2cccc(F)c2)c2ccccc23)cc1 (stereo not drawn) -13.2%
COc1ccc(OC)c(CNC(=O)C2CCCN(c3ncnc4onc(-c5ccc(F)cc5)c34)C2)c1 (stereo not drawn) -5.53%
Fc1ccc(NCc2nnc3n2CCCCC3)cc1Cl -1.23%
COc1cccc(C(=O)Nc2nc3nc(-c4ccccc4)cc(=O)n3[nH]2)c1 2.1%
O=C1c2oc3ccccc3c(=O)c2C(c2cccc(O)c2)N1c1nncs1 (stereo not drawn) -18.5%
CCOC(=O)c1c(-c2ccc(C)cc2)csc1NC(=O)c1cc(=O)c2cc(C)ccc2o1 -14.9%
O=C(Cn1c(=O)nc(-c2ccccc2)c2ccccc21)NCCc1ccccc1 1.45%
CC(=O)c1ccc(NC(=O)CN2C(=O)CN(C)C(=O)c3ccccc32)cc1 -9.55%
COc1cccc(CNC(=O)C2=C(C)C(=O)OC23CCN(C(C)=O)CC3)c1OC -7.27%
COc1cc(Nc2nc(SCc3ccc(Cl)cc3)nc3ccccc23)cc(OC)c1 -22.5%
COc1ccc(-c2oc3ncn4nc(COc5cccc(C)c5C)nc4c3c2-c2ccc(OC)cc2)cc1 -10.6%
O=C(Nc1c(C(=O)N2CCN(c3ccccc3F)CC2)oc2ccccc12)c1cccc(F)c1 9.51%
Cc1oc(-c2ccc(C(=O)Nc3ccc(F)cc3)cc2)nc1COc1ccccc1 -19.7%
CC1CCCN(c2cc3c(cc2F)c(=O)c(S(=O)(=O)c2cccc(Cl)c2)cn3Cc2ccccc2)C1 (stereo not drawn) -8.15%
COc1ccc(CCNC(=O)C(=O)NCC(c2ccco2)S(=O)(=O)c2ccc(C)cc2)cc1 (stereo not drawn) -10.9%
Cc1cccc(CS(=O)(=O)c2ncc(Cl)c(C(=O)Nc3nnc(C(C)C)s3)n2)c1 -94.6%
CC(C)NC(=O)c1ccc(Cn2c(SCc3ccc(F)cc3)nc3cccnc32)cc1 6.45%
O=C(CCn1c(=O)c2cccn2c2cccnc21)N1CCN(c2cccc(C(F)(F)F)c2)CC1 -37.2%
COC(=O)c1ccc(C2Nc3c(C)cccc3-c3cc(C)nn32)cc1 (stereo not drawn) 6.92% [at 11.5 µM, percent change from vehicle, -100% = no light]
COc1ccc(NC(=O)C(NS(=O)(=O)c2cccc3nsnc23)C(C)C)cc1 (stereo not drawn) 6.41% [at 11.5 µM, percent change from vehicle, -100% = no light]
CCOC(=O)c1c(NC(=O)c2cc(-c3ccc(Br)cc3)on2)sc(C(C)=O)c1C 11.5% [at 11.5 µM, percent change from vehicle, -100% = no light]
NC[C@H]1O[C@H](O[C@@H]2[C@@H](O)[C@@H](O[C@H]3O[C@H](CO)[C@@H](O)[C@H](N)[C@@H]3O)[C@H](N)C[C@@H]2N)[C@H](O)[C@@H](O)[C@H]1O -29.8%
